Laboratory results taken from PubChem BioAssay AID686979 (National Center for Advancing Translational Sciences (NCATS), 2013).
“And” between values parts separate entries of the source, which are not always exact repeats. Equal values may be shown once. In all, about 420,000 compounds went through this assay and about 50,000 (12%) were called active. The shares of active, inactive and inconclusive entries below differ from those in the screen. Calls come from the whole dose curve; as a rule, active = well fitted inhibition curve with a large enough effect; inconclusive = small, poorly fitted or top-dose-only effect; inactive = flat fitted curve, though single readings scatter. Potencies of inconclusive entries are left out as doubtful fits.

experiment: qHTS for Inhibitors of human tyrosyl-DNA phosphodiesterase 1 (TDP1): qHTS in cells in presence of CPT; conditions: chicken DT40 Tdp1-/-;hTDP1 cells + 20 nM CPT, ATP luminescence, 48 h; activity change, negative = growth inhibition: at 46.2 µM (top of the series) unless noted; note: nearly all actives have a fitted effect of over 55% in size
Procedure, shortened: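 Chicken DT40 Tdp1-/- cells complemented with human TDP1, 400 cells/well, exposed to compounds plus 20 nM camptothecin for at least 48 h at 37 C; viability read as ATP content by CellTiter-Glo luminescence.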
% is set by controls: 0 for no effect and ±100 for the full control effect; potency is the fitted concentration of half-maximal effect; tags give direction and shape of the fitted curve.

| Structure (SMILES) | Potency | activity change, negative = growth inhibition |
| --- | --- | --- |
| COc1ccc(N2CCN(c3cc(C(=O)NC4CCCCC4)ncn3)CC2)cc1OC | inconclusive [inhibitor, single point] |  |
| Cc1nc([N+](=O)[O-])cn1CC(=O)c1ccc(Cl)cc1 |  | inactive: -18.2% |
| Cc1ccnc(NC(=O)CCC(=O)c2cc(C)sc2C)c1 |  | inactive: -18.7% |
| COc1ccc(N2CCN(C(=O)COCc3cc(-c4ccc5c(c4)OCO5)on3)CC2)cc1 | inconclusive [inhibitor, single point] |  |
| O=C(NCCC1=CCCCC1)c1ccc(-n2cncn2)cc1 |  | inactive: 3.69% |
| O=[N+]([O-])c1ccc(NN=Cc2cccc3ccccc23)nc1 | inconclusive [inhibitor, single point] |  |
| Cc1ccc(S(=O)(=O)N2C[C@H]3[C@H]4C(=O)N(c5ccccc5)C(=O)[C@H]4C[C@H](OC(=O)NCC4CCCCC4)[C@@]3(O)C2)cc1 |  | inactive: -3.19% |
| CC/C(=N/NC(=O)c1ccccc1O)c1c(C)[nH]n(-c2ccccc2)c1=O | active: 2.06 µM |  |
| COc1ccccc1NC(=O)c1cc2c(C)nn(-c3ccccc3)c2s1 | inconclusive [inhibitor, partial curve] |  |
| Cc1cccc(OCC(=O)NC(=S)Nc2ccccc2N2CCOCC2)c1C |  | inactive: -20.8% |
| COc1ccc(NC2CCCN(C(=O)c3ccccc3N3CCOCC3)C2)cc1OC (centres undefined) |  | inactive: -21.7% |
| Cc1nn2c(COc3ccc(NC(=O)c4ccccc4)cc3)nnc2c2ccccc12 | inconclusive [inhibitor, partial curve] |  |
| C#CCOC(=O)c1ccc(-n2cncn2)nc1 |  | inactive: -7.93% |
| O=c1[nH]nc(Cc2ccc([N+](=O)[O-])cc2)c2ccccc12 | inconclusive [inhibitor, single point] |  |
| Cc1cccc(C(=O)OC(C)C(=O)N2CCc3ccccc3C2)c1C (centres undefined) |  | inactive: -6.73% |
| Cc1nc2c3cc(F)ccc3n(CCN3CCCCC3)c2s1 | active: 6.51 µM |  |
| Cc1ccc(NC(=O)c2nc(S(C)(=O)=O)ncc2N(Cc2ccco2)Cc2cccs2)cc1C | inconclusive [inhibitor, single point] |  |
| COc1cccc(/C=N/n2c(CO)nc3ccccc32)c1OC |  | inactive: -8.91% |
| Cc1ccc2c(Cl)c(C(=O)N/N=C/c3cccn3C)sc2c1 | active: 8.2 µM |  |
| O=C1CC(=C2c3ccccc3-c3ccccc32)C(=O)N1CCCCN1CCN(c2ccccc2)CC1 | active: 18.4 µM |  |
| Cc1ccc(SC(c2ccccc2)C(Cn2cncn2)C(=O)c2ccccc2)cc1 (centres undefined) | inconclusive [inhibitor, partial curve, poor fit] |  |
| CCNC(=O)C1CCCN1S(=O)(=O)c1ccc2ccccc2c1 (centres undefined) | inconclusive [inhibitor, partial curve] |  |
| CCOC(=O)c1c(C)[nH]c(N=Nc2ccc(C)cc2)c1C | inconclusive [inhibitor, single point] |  |
| Cc1cc2occ(CC(=O)Nc3nnc(C4CC4)s3)c2cc1C |  | inactive: -25.9% |
| O=C(COc1ccc(Br)cc1)N1CCN(c2ccc([N+](=O)[O-])c(N3CCCCC3)c2)CC1 | inconclusive [inhibitor, single point] |  |

| Structure (SMILES) | Potency | activity change, negative = growth inhibition |
| --- | --- | --- |
| CCc1cccc(CC)c1NC(=O)CN1C2CCCC1CC(NC(=O)Nc1cccc(OC)c1)C2 (centres undefined) | active: 18.4 µM |  |
| CCOc1ccc(-n2c(C)nc3cc(C(=O)NCc4ccc5c(c4)OCO5)ccc32)cc1 | inconclusive [inhibitor, single point] |  |
| CN(Cc1ccccc1)S(=O)(=O)c1ccc2c(c1)n(C)c(=O)n2C | inconclusive [inhibitor, partial curve] |  |
| COc1ccc(CCNC(=O)Cn2c(=O)n(-c3cc(F)ccc3F)c(=O)c3sccc32)cc1OC | inconclusive [inhibitor, single point] |  |
| O=C(NC1CCN(Cc2ccccc2)CC1)c1ccc(Cn2c(=O)c3ccccc3n(Cc3ccc(F)cc3)c2=O)cc1 | inconclusive [inhibitor, single point] |  |
| Cc1cccc2cc(/C=C3\N=C(c4ccccc4)OC3=O)c(N3CCOCC3)nc12 | inconclusive [inhibitor, single point] |  |
| Cc1n(Cc2ccccc2)c2cc([N+](=O)[O-])ccc2[n+]1Cc1ccccc1 | inconclusive [inhibitor, partial curve] |  |
| COc1ccc(CCNC(=O)c2ccc(CNS(=O)(=O)c3ccc(C(C)(C)C)cc3)cc2)cc1OC | inconclusive [inhibitor, single point] |  |
| CCOC(=O)c1[nH]ncc1CN1CCC(Cc2cccc(OC)c2)(C(=O)OCC)CC1 |  | inactive: 3.73% |
| CC1CCN(C(C)C(=O)Nc2ccccc2-c2ccccc2)CC1 (centres undefined) | inconclusive [inhibitor, single point] |  |
| CC1CCCCC1NC(=O)CCCCCn1c(=S)[nH]c2ccsc2c1=O (centres undefined) |  | inactive: -10.3% |
| CC(C)CCN1CCN(Cc2ccon2)CC1CCO (centres undefined) |  | inactive: -6.26% |
| COc1ccc(S(=O)(=O)NC(=O)C2(C)CCN2C(=O)Cc2cccc3ccccc23)cc1 (centres undefined) |  | inactive: 4.23% |
| COCCCNC(=O)CSc1nc2cc3c(cc2c(=O)n1CCCC(=O)NCc1ccc2c(c1)OCO2)OCO3 |  | inactive: -3.74% |
| Cn1c(=O)cc(SCC(=O)N2CCN(c3ccccc3F)CC2)c2ccc(Cl)cc21 | inconclusive [inhibitor, single point] |  |
| Cc1ccccc1OCCSc1nc2ccc(NC(=O)c3cccs3)cc2s1 | active: 23.1 µM |  |
| COc1ccc(NC(=O)COc2ccc3c(C)cc(=O)oc3c2)cc1S(=O)(=O)N1CCCCC1 | inconclusive [inhibitor, single point] |  |
| COc1ccc(OC)c(NC(=O)Nc2c(C)n(C)n(-c3ccccc3)c2=O)c1 |  | inactive: -11.2% |
| O=C(CSCSCC(=O)Nc1ccc2c(c1)OCO2)Nc1ccc2c(c1)OCO2 | active: 14.6 µM |  |
| COCn1c(COc2ccccc2)nc2ccccc21 | inconclusive [inhibitor, single point] |  |
| Cn1cc(/C=C/c2cc[n+](C)cc2)c2cc(F)ccc21 | active: 0.517 µM |  |
| O=C1NN(c2ccccc2)C(=O)/C1=C/c1ccc(Sc2cccc3ccccc23)o1 |  | inactive: -3.15% |
| Cc1ccc(Cn2ccnc2SCC(=O)Nc2nnc(C)s2)cc1 |  | inactive: -4.31% |
| Cc1ccccc1NC(=O)COc1coc(CN2CCN(c3ccccc3)CC2)cc1=O | inconclusive [inhibitor, single point] |  |
| O=C(c1ccc(F)cc1)N1CCN(S(=O)(=O)c2ccc(Br)cc2)CC1 | inconclusive [inhibitor, single point] |  |

| Structure (SMILES) | Potency | activity change, negative = growth inhibition |
| --- | --- | --- |
| CC(OC(=O)CN1C(=O)c2ccccc2C1=O)C(=O)NC1CCCCC1 (centres undefined) |  | inactive: -6.85% |
| CCc1nc2sc3ccccc3c(=O)c2c(=O)n1Cc1ccc(OC)cc1 | inconclusive [inhibitor, single point] |  |
| Cc1ccc(-c2csc(=Nc3ccccc3)n2Cc2ccc3c(c2)OCO3)cc1 | active: 14.6 µM |  |
| CS(=O)(=O)/C(C#N)=C/c1cccn1S(=O)(=O)c1cccc2ccccc12 | active: 16.4 µM |  |
| COc1ccc(N2C(=O)CN(Cc3ccc(OC)c(OC)c3)C2=S)cc1 |  | inactive: -74.8% |
| COc1ccc(Cl)cc1NC(=O)CN(C)CC(=O)NC(C)c1ccccc1 (centres undefined) | inconclusive [inhibitor, single point] |  |
| Cc1ccc(NC(=O)C2CCN(C(=O)c3ccc(Cl)cc3)CC2)nc1 |  | inconclusive: -33.1% [inhibitor] |
| CCCCCCc1cc2cc(C(=O)Nc3ccccc3)c(=O)oc2cc1O | active: 3.26 µM |  |
| CSc1ccccc1C(=O)OCC(=O)Nc1c(C)n(C)n(-c2ccccc2)c1=O |  | inactive: 4.13% |
| CCCn1c(SC(C)C(=O)NCC2CCCO2)nc2cc(Cl)ccc2c1=O (centres undefined) | inconclusive [inhibitor, single point] |  |
| CN(CC1CCN(CCc2cccc(C(F)(F)F)c2)CC1)C(=O)c1ccc(F)cc1F | inconclusive [inhibitor, single point] |  |
| COc1cccc(CCNS(=O)(=O)CCNC(=O)c2cccc(OC)c2)c1 |  | inactive: -28.6% |
| CCNC(=O)c1cc2c(=O)n3cccc(C)c3nc2n(Cc2ccc(C)cc2)c1=N | active: 18.4 µM |  |
| COc1ccc(-c2nc3cnc(N4CCN(C)CC4)nc3n(Cc3cccs3)c2=O)cc1 | inconclusive [inhibitor, single point] |  |
| CC1CC1C(=O)Nc1ccc(-c2ccccc2)cc1 (centres undefined) | inconclusive [inhibitor, single point] |  |
| CC1(c2ccc(Cl)cc2)CC(C)(C)N(C(=O)c2cccc(F)c2)c2ccccc21 (centres undefined) | inconclusive [inhibitor, single point] |  |
| COc1cc(/C=N/NC(=S)NCC2CCCO2)cc(OC)c1OC (centres undefined) | inconclusive [inhibitor, single point] |  |
| COCCCn1c(-c2ccc(S(=O)(=O)N3CCOCC3)cc2)csc1=Nc1ccccc1 | active: 5.17 µM and active: 18.4 µM |  |
| Nc1nnnn1/N=C/C(Br)=C/c1ccccc1 | active: 0.461 µM |  |
| C=C(C)Cn1c(-c2ccc(OC)cc2)nc2ccccc21 | active: 13 µM |  |
| O=C(CN(C(=O)CCC(=O)Nc1nccs1)c1ccc2c(c1)OCO2)NCc1ccc(F)cc1 |  | inconclusive: -34.4% [inhibitor] |
| COc1ccc(C2CC(c3ccco3)n3ncnc3N2)cc1 (centres undefined) | inconclusive [inhibitor, single point] |  |
| CNc1ccc(-c2cc(OC)ccc2OC)cn1 |  | inactive: -15% |
| NC(=O)CSc1nnc(NC(=O)C2CC(=O)N(c3ccc(F)cc3)C2)s1 (centres undefined) |  | inactive: -1.66% |
